# Reference: the supplement of paper PMC12217912
# This is one part of the list. The full chains were built here from the parent and the listed change. Values near 0.05 are background.
# B1: TEV protease; numbered along this chain (parent)
# chain: MGESLFKGPRDYNPISSSICHLTNESDGHTTSLYGIGFGPFIITNKHLFRRNNGTLVVQSLHGVFKVKDTTTLQQHLVDGRDMIIIRMPKDFPPFPQKLKFREPQREERICLVTTNFQTKSMSSMVSDTSCTFPSGDGIFWKHWIQTKDGQCGSPLVSTRDGFIVGIHSASNFTNTNNYFTSVPKNFMELLTNQEAQQWVSGWRLNADSVLWGGHKVFMVKPEEPFQPVKEATQL
# Variants of: B1
# Assay: raw area under fraction-flipped curve 0-4 h after induction (AUC4h, not background-subtracted), DNA-recorder readout of cleavage of the substrate (dimensionless); higher = more cleavage of the substrate by the protease variant
# Details: temperature: 34 °C; time window: 0-4 h after rhamnose induction
# Experimental: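 In vivo DNA recorder in E. coli TOP10(DE3) ΔrhaA at 34 °C. Each TEVp single-site mutant (parent TEVp 0) is paired with a single-site variant of the 7-mer TEVs (canonical ENLYFQ|S). The substrate sits between flexible linkers in a Bxb1-sfGFP-TEVs-SsrA fusion, so cleavage stabilises Bxb1 and speeds flipping of a recombination array, read by NGS. The value is the raw area under the fraction-flipped curve over 0-4 h after rhamnose induction (AUC4h), with ≥20 reads per time point. It is not background-subtracted; inactive controls average about 0.047.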
# 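Note: Bxb1 expression induced with 0.2% (w/v) L-rhamnose at OD600 near 0.5, cultures sampled hourly, flipped fraction per protease–substrate barcode pair counted by paired-end Illumina sequencing.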
Variant,area with substrate ENLDFQS,area with substrate ENLEFQS,area with substrate ENLFFQS,area with substrate ENLGFQS,area with substrate ENLLFQS,area with substrate ENLNFQS,area with substrate ENLQFQS,area with substrate ENLSFQS,area with substrate ENLTFQS,area with substrate ENLWFQS
Y179H,0.073,0.0721,0.0628,0.0613,0.0522,0.055,0.0587,0.0658,0.0752,0.0564
K100P,0.0556,0.066,0.0845,0.0669,0.0488,0.0676,0.0753,0.0685,–,0.0754
N177R,0.0637,–,0.0938,–,–,–,0.102,–,0.0687,0.0853
N177W,0.0611,0.0704,0.0662,–,0.0573,0.062,–,0.0555,–,0.0339
V157C,0.0476,0.0586,0.0772,–,0.0866,0.0627,–,0.0415,–,–
V157T,0.0584,–,0.0724,–,–,–,–,–,–,–
Q75G,0.0564,–,0.0597,–,–,0.0555,–,0.0641,–,–
T55R,0.0634,0.0907,0.0691,–,0.0874,–,–,–,–,–
V229N,0.0511,0.0819,0.11,–,–,0.0742,0.0664,0.0516,–,0.0907
V229W,0.0665,–,–,0.0737,–,0.0818,0.0772,0.0606,–,–
N172D,0.0578,–,0.0703,–,–,0.0691,0.0613,–,–,0.0594
S171R,0.0688,–,0.0601,–,–,0.0315,–,–,–,–
K185D,0.0729,–,0.0688,0.0696,–,0.0696,–,0.0628,–,0.0922
T129R,0.0774,–,0.0958,–,–,–,0.07,0.0507,–,0.0977
T129A,0.0729,0.0708,0.0998,0.0695,–,–,0.054,–,–,–
G35H,0.0529,–,0.0581,–,–,0.0408,–,0.0378,–,0.0539
F163G,0.0577,–,–,–,–,–,–,–,–,–
V57P,0.0632,0.033,0.0414,–,–,–,–,0.0436,–,0.0438
E107D,0.0602,–,0.0685,–,0.0527,0.0553,0.0723,0.0633,–,0.0638
P9T,0.0592,–,0.0715,–,–,0.0857,–,0.0568,–,–

Variant,area with substrate ENLDFQS,area with substrate ENLEFQS,area with substrate ENLFFQS,area with substrate ENLGFQS,area with substrate ENLLFQS,area with substrate ENLNFQS,area with substrate ENLQFQS,area with substrate ENLSFQS,area with substrate ENLTFQS,area with substrate ENLWFQS
D82S,0.0561,–,0.0611,–,–,0.0476,0.0734,0.0484,–,–
V113E,0.0703,–,0.0584,–,0.0495,–,–,–,–,–
D27H,0.0595,0.0458,0.0828,–,–,–,0.0815,–,–,–
T31Y,0.0603,0.054,0.0912,–,0.0728,0.084,0.0638,0.054,–,0.0899
Y34P,0.0368,–,–,–,–,0.0586,–,0.0612,–,–
Y34T,0.072,–,0.065,–,–,0.0729,–,–,–,0.0713
Y34M,0.0618,0.0679,0.0724,–,–,0.0593,0.0546,0.0557,–,–
F173P,0.0648,–,–,–,0.0535,0.0674,–,0.0444,–,–
F173V,0.0642,0.0775,0.0715,–,0.0534,0.0601,–,0.0562,–,–
S121N,0.0427,0.0687,0.0794,–,0.0705,–,–,0.0526,–,0.0723
L99T,0.0524,0.0633,0.116,–,–,–,–,0.0607,–,0.0722
L5I,0.0452,–,0.0807,–,0.0898,–,0.137,–,0.0728,–
Q59E,0.081,0.0814,–,–,–,–,–,0.0547,–,–
S130T,0.064,–,0.0947,–,–,–,–,–,–,–
S60I,0.0654,–,0.0723,0.0682,–,0.069,0.0703,0.0759,–,0.0651
E231S,0.073,0.116,0.0742,–,0.053,0.0639,–,–,–,0.0402
T115H,0.0654,0.0637,–,–,0.074,0.0688,–,0.0663,–,–
R109A,0.065,0.0498,–,–,0.0715,0.0671,0.0499,–,–,–
R109N,0.0607,0.0609,0.092,–,–,0.0738,–,–,–,0.0732

# Same assay, conditions: temperature: 34 °C; time window: 0-4 h after rhamnose induction
Variant,area with substrate ENLHFQS,area with substrate ENLIFQS,area with substrate ENLKFQS,area with substrate ENLPFQS,area with substrate ENLMFQS,area with substrate ENLRFQS,area with substrate ENLVFQS,area with substrate ENLCFQS
K100P,0.0625,0.0718,0.0767,0.0704,–,–,–,–
N177R,–,–,0.09,0.0607,–,–,–,–
N177W,0.0618,–,0.0716,0.0631,0.0735,0.0647,0.0518,–
V157C,0.0641,–,0.0807,0.0572,–,0.076,0.0581,–
V157T,–,0.076,0.0671,–,–,0.0773,–,–
Q75G,–,–,0.0661,0.0533,–,0.0707,0.0838,–
T55R,–,–,0.0668,0.0635,0.0766,0.0724,0.113,–
V229N,0.0783,0.0747,0.0955,0.0521,–,0.0709,–,0.0755
V229W,0.058,0.131,0.0977,0.0496,0.0539,0.0755,0.0937,0.0695
N172D,–,–,0.0574,0.0715,0.0802,0.0653,–,–
S171R,0.0768,–,0.0726,0.0552,0.108,0.0717,0.115,–
K185D,0.0664,–,–,0.0563,0.0711,–,–,–
T129R,–,0.0928,0.07,–,0.078,0.0776,–,–
T129A,0.0536,0.0758,0.0573,–,–,–,0.081,–
G35H,–,–,0.046,–,–,–,–,–
F163G,–,–,0.0981,0.0988,–,0.0708,–,–
V57P,0.0368,–,0.0475,0.0278,–,–,–,–
E107D,0.0776,0.0862,0.0913,0.0651,–,–,–,–
D82S,–,0.0661,–,–,–,–,–,–

Variant,area with substrate ENLHFQS,area with substrate ENLIFQS,area with substrate ENLKFQS,area with substrate ENLPFQS,area with substrate ENLMFQS,area with substrate ENLRFQS,area with substrate ENLVFQS,area with substrate ENLCFQS
V113E,–,–,0.0839,–,–,0.0583,–,–
D27H,0.0327,0.0566,0.0181,–,–,0.0661,–,–
T31Y,0.0518,–,0.0943,0.0586,–,–,–,–
Y34P,0.0556,–,0.055,–,–,0.0525,–,–
Y34T,–,0.0617,–,0.0616,–,–,–,–
Y34M,–,–,–,0.0484,–,–,–,–
F173P,–,–,0.0631,0.0608,–,–,–,–
F173V,0.0678,–,0.0714,–,0.0565,0.0519,–,–
S121N,0.0611,0.0738,0.0823,0.0614,–,0.0786,–,–
L99T,–,–,0.0807,–,0.0851,–,–,–
L5I,–,–,–,0.0608,0.0708,–,–,–
Q59E,0.0554,0.085,0.0572,0.0655,–,0.0373,–,–
S130T,0.0689,0.0999,0.0851,0.0691,–,–,–,–
S60I,–,–,–,0.0587,–,0.0688,–,–
E231S,0.0846,–,–,0.055,–,0.0633,–,0.0681
T115H,0.0585,0.097,–,0.0633,–,–,0.0824,–
R109A,0.0721,0.119,0.112,–,–,–,–,–
R109N,–,–,0.0573,0.0654,–,0.0831,–,–
